Source: PubChem BioAssay AID995 (National Center for Advancing Translational Sciences (NCATS), 2007)
The whole screen tested about 72,000 compounds, of which about 710 (0.99%) were called active. The shares of active, inactive and inconclusive entries below differ from those in the screen. Calls come from the whole dose curve; as a rule, active = well fitted inhibition curve with a large enough effect; inconclusive = small, poorly fitted or top-dose-only effect; inactive = no such curve, though single readings can be large or run the other way. A potency beside an inconclusive call is a rough fit, not a confirmed value.

assay: qHTS Assay for Inhibitors of the ERK Signaling Pathway using a Homogeneous Screening Assay; conditions: HEK293-V1b, vasopressin-stimulated pERK AlphaScreen; activity, negative = inhibition: at 57.5 µM (top of the series) unless noted; note: nearly all actives have a fitted effect of over 55% in size
Summary of the method: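 V1b-HEK293 cells; cpd 30 min 37C; 25 nM vasopressin 5 min; lyse 10 min; AlphaScreen beads 5 hr RT. Normalized to DMSO basal and 25 nM vasopressin; AC50 by Hill fit.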
% is set by controls: 0 for no effect and ±100 for the full control effect; potency is the fitted concentration of half-maximal effect; tags give direction and shape of the fitted curve.

Which activity, negative = inhibition does the source give for C[C@@H](CCC(=O)O)C(=O)O here?
Its activity, negative = inhibition is inconclusive: -48% [inhibitor] [at 11.5 µM].

Which Potency does the source give for COC(=O)c1nnn(-c2nonc2N)c1CSc1ccccn1 here?
Its Potency is inconclusive: 25.1 µM [inhibitor, single point].

For COC(=O)c1sccc1NC(=O)c1ccncc1, which Potency is on record?
Its Potency is inconclusive: 7.94 µM [inhibitor, full curve].

With c1ccncc1 as the compound, how does the Potency read?
The Potency was “inactive”.

For COc1cccc2cc(C(C)N(CCCN3CCOCC3)C(=O)Nc3ccccc3)oc12 (stereo unspecified), which Potency is on record?
The Potency was “inactive”.

For C=C(C)COc1ccc(-c2n[nH]c(C)c2Oc2ccccc2OC)c(O)c1, which Potency is on record?
The Potency was inconclusive: 39.8 µM [inhibitor, single point].

With Cc1ccc(C)c(N2CCN(C(=O)c3ccc(CS(=O)(=O)c4ccccc4C)o3)CC2)c1 as the compound, how does the Potency read?
Its Potency is inconclusive: 15.8 µM [inhibitor, partial curve].

For O=C(c1cnccn1)N1CCC2(CCCN(c3ccc(-c4ccccc4)cc3)C2)CC1, which Potency is on record?
Its Potency is inconclusive: 12.6 µM [inhibitor, partial curve].

With Cc1csc2nc(CSc3nc4ccccc4o3)c(Br)n12 as the compound, how does the Potency read?
The Potency was “inactive”.

With NS(=O)(=O)c1ccc(CCNC(=O)C2CCCN(S(=O)(=O)c3cccnc3)C2)cc1 (stereo unspecified) as the compound, how does the Potency read?
Its Potency is inconclusive: 15.8 µM [inhibitor, partial curve].

For CCCCC(CC)Cn1c(N)c(C#N)c2nc3ccccc3nc21 (stereo unspecified), which Potency is on record?
Its Potency is inconclusive: 25.1 µM [inhibitor, single point].

For O=S(=O)(Nc1ccc2c(c1)OCO2)c1cccs1, which Potency is on record?
The Potency was “inactive”.

Which results are given for CC/C(=C(\c1ccccc1)c1ccc(OCCN(C)C)cc1)c1ccccc1?
Potency: inconclusive: 12.6 µM [inhibitor, partial curve]; activity, negative = inhibition: inconclusive: -59.6% [inhibitor]

Which Potency does the source give for CC(C)(C)OC(=O)N1CCNc2ccccc2C1 here?
The Potency was inconclusive: 12.6 µM [inhibitor, partial curve].

Which Potency does the source give for CCc1oc2ccccc2c1C(=O)c1cc(Br)c(O)c(Br)c1 here?
The Potency was inconclusive: 10 µM [inhibitor, partial curve].

For COc1ccc(N2CCN(C(c3ccccc3OC)c3nnnn3C3CCCC3)CC2)cc1 (stereo unspecified), which Potency is on record?
Its Potency is inconclusive: 12.6 µM [inhibitor, partial curve].

With Cc1cccc(CN2CCN([C@@H](c3ccccc3)c3ccc(Cl)cc3)CC2)c1 as the compound, how does the Potency read?
Its Potency is “inactive”.

With CCOc1ccc(-c2cc(CCCC(=O)NCCCOC)no2)cc1 as the compound, how does the Potency read?
The Potency was “inactive”.

Which Potency does the source give for CCN(CC)CCCCn1c(-c2ccccc2)nc2c(N(CCOC)CCOC)nc(C)nc21 here?
Its Potency is “inactive”.

With COc1ccccc1NC(=O)CSc1nnc(Cn2nnc(-c3ccccc3)n2)n1-c1ccccc1 as the compound, how does the Potency read?
Its Potency is inconclusive: 1 µM [inhibitor, full curve, poor fit].
